Data reported in the supplement of paper PMC8728848.
The list shows a part of the results.

Assays:
Assay in all cases: glycan array binding signal (z-score within array); higher = stronger binding
Settings in all cases: glycan notation: IUPAC condensed, linker removed
Fuc(a1-2)Gal = target: Fuc(a1-2)Gal
In short: (§1)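 The Consortium for Functional Glycomics database supplied 3228 glycan arrays, of which those lacking an available protein sequence were dropped. The binding signal, a within-array Z-score, was averaged across arrays of the same protein sequence and across linkers. Negative scores can be read as non-binding.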

Fuc(a1-2)Gal(b1-3)GalNAc = target: Fuc(a1-2)Gal(b1-3)GalNAc
In short: as §1

[1] = target: Fuc(a1-2)Gal(b1-3)GalNAc(b1-3)Gal
In short: as §1

[2] = target: Fuc(a1-2)Gal(b1-3)GalNAc(b1-3)Gal(a1-4)Gal(b1-4)Glc
In short: as §1

[3] = target: Fuc(a1-2)Gal(b1-3)GalNAc(b1-4)[Neu5Ac(a2-3)]Gal(b1-4)Glc
In short: as §1

Fuc(a1-2)Gal(b1-3)GlcNAc = target: Fuc(a1-2)Gal(b1-3)GlcNAc
In short: as §1

[4] = target: Fuc(a1-2)Gal(b1-3)GlcNAc(b1-2)Man(a1-3)[Fuc(a1-2)Gal(b1-3)GlcNAc(b1-2)Man(a1-6)]Man(b1-4)GlcNAc(b1-4)GlcNAc
In short: as §1

[5] = target: Fuc(a1-2)Gal(b1-3)GlcNAc(b1-3)Gal(b1-4)Glc
In short: as §1

[6] = target: Fuc(a1-2)Gal(b1-3)GlcNAc(b1-3)[Gal(b1-4)[Fuc(a1-3)]GlcNAc(b1-6)]Gal(b1-4)Glc
In short: as §1

[7] = target: Fuc(a1-2)Gal(b1-3)[Fuc(a1-4)]GlcNAc
In short: as §1

[8] = target: Fuc(a1-2)Gal(b1-3)[Fuc(a1-4)]GlcNAc(b1-2)Man(a1-3)[Fuc(a1-2)Gal(b1-3)[Fuc(a1-4)]GlcNAc(b1-2)Man(a1-6)]Man(b1-4)GlcNAc(b1-4)GlcNAc
In short: as §1

Fuc(a1-2)Gal(b1-4)Glc = target: Fuc(a1-2)Gal(b1-4)Glc
In short: as §1

Fuc(a1-2)Gal(b1-4)Glc6S = target: Fuc(a1-2)Gal(b1-4)Glc6S
In short: as §1

Fuc(a1-2)Gal(b1-4)GlcNAc = target: Fuc(a1-2)Gal(b1-4)GlcNAc
In short: as §1

[9] = target: Fuc(a1-2)Gal(b1-4)GlcNAc(b1-2)Man(a1-3)[Fuc(a1-2)Gal(b1-4)GlcNAc(b1-2)Man(a1-6)]Man(b1-4)GlcNAc(b1-4)GlcNAc
In short: as §1

[10] = target: Fuc(a1-2)Gal(b1-4)GlcNAc(b1-3)Gal(b1-4)GlcNAc
In short: as §1

[11] = target: Fuc(a1-2)Gal(b1-4)GlcNAc(b1-3)Gal(b1-4)GlcNAc(b1-3)Gal(b1-4)GlcNAc
In short: as §1

[12] = target: Fuc(a1-2)Gal(b1-4)GlcNAc6S
In short: as §1

[13] = target: Fuc(a1-2)Gal(b1-4)[Fuc(a1-3)]GlcNAc
In short: as §1

[14] = target: Fuc(a1-2)Gal(b1-4)[Fuc(a1-3)]GlcNAc(b1-2)Man(a1-3)[Fuc(a1-2)Gal(b1-4)[Fuc(a1-3)]GlcNAc(b1-2)Man(a1-6)]Man(b1-4)GlcNAc(b1-4)GlcNAc
In short: as §1

[15] = target: Fuc(a1-2)Gal(b1-4)[Fuc(a1-3)]GlcNAc(b1-3)Gal(b1-4)[Fuc(a1-3)]GlcNAc
In short: as §1

[16] = target: Fuc(a1-2)Gal(b1-4)[Fuc(a1-3)]GlcNAc(b1-3)Gal(b1-4)[Fuc(a1-3)]GlcNAc(b1-3)Gal(b1-4)[Fuc(a1-3)]GlcNAc
In short: as §1

Fuc(a1-2)Gal6S(b1-4)Glc = target: Fuc(a1-2)Gal6S(b1-4)Glc
In short: as §1

[17] = target: Fuc(a1-2)Gal6S(b1-4)Glc6S
In short: as §1

[18] = target: Fuc(a1-2)Gal6S(b1-4)GlcNAc
In short: as §1

Fuc(a1-2)[Gal(a1-3)]Gal = target: Fuc(a1-2)[Gal(a1-3)]Gal
In short: as §1

[19] = target: Fuc(a1-2)[Gal(a1-3)]Gal(b1-3)GlcNAc
In short: as §1

[20] = target: Fuc(a1-2)[Gal(a1-3)]Gal(b1-3)GlcNAc(b1-2)Man(a1-3)[Fuc(a1-2)[Gal(a1-3)]Gal(b1-3)GlcNAc(b1-2)Man(a1-6)]Man(b1-4)GlcNAc(b1-4)GlcNAc
In short: as §1

[21] = target: Fuc(a1-2)[Gal(a1-3)]Gal(b1-4)Glc
In short: as §1

[22] = target: Fuc(a1-2)[Gal(a1-3)]Gal(b1-4)GlcNAc
In short: as §1

B1: StdA (Salmonella typhimurium), Q8Z3Z0 (protein)
chain: MAAAGMMYGASVFAADTTPTAGPFGSGKILFTGTITNSPCDIAPGDDAITVPFGQISYRKLNTANATTDSKPFTIHLQNCAFDPNETTIAGSAGKMSKVTVSFSGTADTSGKAYVSTGSAQHVGVQLLKGDNTSLITPNTPMPDGDAQQLQAGNNELNFFARLIALTDAATPGDVNASVTYTLKYL
glycan array binding signal (z-score) (Fuc(a1-2)Gal): -0.506
glycan array binding signal (z-score) (Fuc(a1-2)Gal(b1-3)GalNAc): 0.436
glycan array binding signal (z-score) [1]: 0.329
glycan array binding signal (z-score) [2]: -0.377
glycan array binding signal (z-score) [3]: -0.378
glycan array binding signal (z-score) (Fuc(a1-2)Gal(b1-3)GlcNAc): -0.15
glycan array binding signal (z-score) [4]: 10.3
glycan array binding signal (z-score) [5]: -0.459
glycan array binding signal (z-score) [6]: 0.192
glycan array binding signal (z-score) [7]: -0.361
glycan array binding signal (z-score) [8]: -0.217
glycan array binding signal (z-score) (Fuc(a1-2)Gal(b1-4)Glc): -0.451
glycan array binding signal (z-score) (Fuc(a1-2)Gal(b1-4)Glc6S): 0.205
glycan array binding signal (z-score) (Fuc(a1-2)Gal(b1-4)GlcNAc): -0.284
glycan array binding signal (z-score) [9]: 0.883
glycan array binding signal (z-score) [10]: -0.306
glycan array binding signal (z-score) [11]: 0.168
glycan array binding signal (z-score) [12]: -0.498
glycan array binding signal (z-score) [13]: -0.448
glycan array binding signal (z-score) [14]: 2.3
glycan array binding signal (z-score) [15]: 1.11
glycan array binding signal (z-score) [16]: 1.04
glycan array binding signal (z-score) (Fuc(a1-2)Gal6S(b1-4)Glc): 1.17
glycan array binding signal (z-score) [17]: 0.124
glycan array binding signal (z-score) [18]: -0.527
glycan array binding signal (z-score) (Fuc(a1-2)[Gal(a1-3)]Gal): -0.146
glycan array binding signal (z-score) [19]: -0.121
glycan array binding signal (z-score) [20]: -0.48
glycan array binding signal (z-score) [21]: 0.077
glycan array binding signal (z-score) [22]: -0.14
